Values marked as one replicate rest on one cluster of the flow cell; about a third of the high ones do not repeat.

This note sets out measurements from the supplement of paper PMC10126150.

The data set relates to ATP. Description: switch fluorescence ratio, 500 uM ATP over buffer (Cy3 cluster intensity, sum of 5 cycles each) (fold (ratio)); higher = stronger signal-on switching upon ATP binding; sequences stand for … in TCGTCGGCAGCGTCAGATGTGTATAAGAGACAGTTTTTTTTTTTTTTTTTTTTTTTTT…TC. The settings on record: aptamer strand: ATP DNA aptamer (quencher-CACCTGGGGGAGTATTGCGGAGGAAGG + anchor), 100 nM annealed; ATP concentration: 500 uM; one replicate. In short, it runs like this: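 Exposure to 500 uM ATP lasted 15 min at 22 °C before imaging, and a selection-buffer image was taken beforehand, for Cy3-labelled switching-strand clusters on a modified Illumina MiSeq flow-cell annealed to 100 nM quencher-labelled ATP aptamer. Five buffer/ATP cycles were run with NaOH stripping and re-annealing between them. The fluorescence ratio per cluster is summed target-cycle over summed buffer-cycle Cy3 intensity, averaged per switch-domain sequence. Clusters outside 100-1000 RFU were excluded.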

For TTCCCGTCTC, the switch fluorescence ratio came to 1.07.
CAGTAGTTCT: the switch fluorescence ratio was 1.02.
As for CGAAACTTTT, the switch fluorescence ratio worked out at 1.04.
Turning to TATAGGACAG, the switch fluorescence ratio came to 1.01.
The value for GGGGCCAGTT was 1.
Regarding GACTCTACAC, the switch fluorescence ratio came to 1.32.
In the case of GTCCGACGGC, the switch fluorescence ratio is 1.4.
Then CCATTCTCGC, with 1.09.
Consider TGATCTTTGT, for which the switch fluorescence ratio was determined as 1.01.
As for AGATGGGACT, the switch fluorescence ratio came out at 0.973.
Consider GATGTTTAAA, for which the switch fluorescence ratio was 0.945.
ATATAATGAG: the switch fluorescence ratio was 1.04.
The value for ACTCGGGTCG was 1.14.
With GGTTCGAATA, the switch fluorescence ratio was determined as 0.993.
The value for ACAGAATCAA was 1.02; that for AGTGGGAACT was 1.02; that for ACGTGTCATC was 1.02.
In the case of CATAGACGT, the switch fluorescence ratio came to 1.04.
As for TTGACAGGAG, the switch fluorescence ratio is 0.994.
GGGGGACCGC: the switch fluorescence ratio was found to be 0.967.
Then AGGGTTTG, with 0.984; and AATCGTCACC, with 1.09.
The value for ATTAAAATCC was 1.04.
Then GTCAGCCCAT, with 0.949; and CCATTAGTGG, with 0.981.
As for AAAAGGCGAA, the switch fluorescence ratio is 1.15.
The value for ACGTATAGTA was 0.995; that for TATCAGCCA was 1.02.
Take TTGTTAGGAG: the switch fluorescence ratio turned out to be 0.98.
Turning to ACGTATTGAT, the switch fluorescence ratio worked out at 1.17.
Then TAGTTACAAA, with 1.02.
Then CCAGTAGTTC, with 1.05.
As for ACGACAAGT, the switch fluorescence ratio was 1.01.
For CCAGAGAGAC, the switch fluorescence ratio worked out at 1.16.
Then CTATCACATT, with 0.969; and TTTAGTGACT, with 1.04; and TACATATATC, with 1.09.
The value for AGTCTACGAG was 1.01.
Take CAGAGGCAGA: the switch fluorescence ratio stood at 1.42.
The value for CCTCGCTCAG was 2.97.
Take AATTATGCAT: the switch fluorescence ratio is 1.02.
Regarding GTGCTGTTTT, the switch fluorescence ratio stood at 0.984.
GATTGGATCT: the switch fluorescence ratio is 1.01.
Take GCATGGAGCG: the switch fluorescence ratio is 0.959.
As to CATCATAGAG, the switch fluorescence ratio amounted to 0.992.
AAGGCTTCTG: the switch fluorescence ratio is 1.04.
Then GAACTCGTGG, with 0.996; and TACTGTAGA, with 1.05.
For TCACTGGAAT, the switch fluorescence ratio was found to be 1.05.
For the sequence GAGCGGAATG, the switch fluorescence ratio was 1.06.
For CTCAGCAAG, the switch fluorescence ratio was 3.12.
The value for TAACCACAT was 1.03; that for TCTTACGGTT was 0.964.
Turning to AAGGTATGCG, the switch fluorescence ratio worked out at 1.11.
Take CAGGGACTAA: the switch fluorescence ratio was 1.01.
The value for TTAGAGTAAA was 0.977; that for TTAGCGATGC was 3.14; that for AAGAGAAAGG was 0.966.
In the case of TCTGTAA, the switch fluorescence ratio is 1.09.
Regarding ACACCTTATG, the switch fluorescence ratio was found to be 1.01.
The value for ATGATAAGTC was 1.04; that for AAAAAAGCAA was 1.23; that for ATAGCTATTA was 0.951.
With CTGTAGAGGT, the switch fluorescence ratio is 0.972.
Consider ATGGTGGGGT, for which the switch fluorescence ratio is 1.01.
The value for TTGCGGGGTC was 1.06; that for TCTCTCTTTA was 0.972; that for AGATCTAGTA was 0.985.
GTGATCGCTC: the switch fluorescence ratio is 1.08.
Then GCTGGGGCCG, with 0.988.
Then ACTAGCACTC, with 1.13; and CATCTTTGCT, with 1.01; and CTATATTCGA, with 1.03.
The value for GATGTGTTTG was 1.03.
As for CATAGAGTTA, the switch fluorescence ratio turned out to be 0.998.
Take TCACGAGGAC: the switch fluorescence ratio stood at 0.915.
Then AAGGCAGACG, with 0.953; and GCCGGAATAG, with 2.91; and TAGGGCCCTG, with 0.983.
